Data: the supplement of paper PMC7125110
± gives the standard error. Variants at the background level are over-represented here.

B1: glmS ribozyme (parent)
chain: AUAAAAGCGCCAGAACUACAGAAAUGUAGUUGACGAGGAGGAGGUUUAUCGAAUUUUCGGCGGAUGCCUCCAAA

Assays:
Settings in all cases: with glucosamine-6-phosphate
[1] = variants of: B1; test: self-cleavage kobs at 640 uM GlcN6P; higher = faster cleavage; RNA array
In short: (§1)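 kobs was derived by fitting per-tile medians to one- or two-exponential decays after normalising signals to baseline and to non-cleaving reference variants. Those signals came from barcoded ribozyme variants transcribed in situ by E. coli RNA polymerase on sequenced MiSeq chips, followed through a hybridised Cy3 probe at 37 °C and imaged over ~14 h. Glucosamine-6-phosphate (40 μM to 10 mM) in HEPES/KCl/Mg(OAc)2 buffer was flowed in. Weighted Michaelis–Menten fits across concentrations then gave kcat and KM.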

[2] = variants of: B1; test: self-cleavage kobs at 2500 uM GlcN6P; higher = faster cleavage; RNA array
In short: as §1

[3] = variants of: B1; test: self-cleavage kobs at 10000 uM GlcN6P; higher = faster cleavage; RNA array
In short: as §1

[4] = variants of: B1; test: self-cleavage kobs at 160 uM GlcN6P; higher = faster cleavage; RNA array
In short: as §1

Variant: C16A G32U
- self-cleavage kobs at 640 uM GlcN6P [1]: 5.63e-05 ± 1e-05 s⁻¹
- self-cleavage kobs at 2500 uM GlcN6P [2]: 0.000143 ± 2.8e-05 s⁻¹
- self-cleavage kobs at 10000 uM GlcN6P [3]: 0.000363 ± 6.7e-05 s⁻¹

Variant: C16A G43U G63C C68U
- self-cleavage kobs at 640 uM GlcN6P [1]: < 1e-05 s⁻¹
- self-cleavage kobs at 160 uM GlcN6P [4]: < 1e-05 s⁻¹
- self-cleavage kobs at 2500 uM GlcN6P [2]: < 1e-05 s⁻¹

Variant: C16A G51U C58A
- self-cleavage kobs at 640 uM GlcN6P [1]: < 1e-05 s⁻¹

Variant: C16A G66U C68A
- self-cleavage kobs at 640 uM GlcN6P [1]: 0.0001 ± 3.2e-05 s⁻¹

Variant: C16A U30C G40U G43C U49C
- self-cleavage kobs at 640 uM GlcN6P [1]: < 1e-05 s⁻¹
- self-cleavage kobs at 2500 uM GlcN6P [2]: < 1e-05 s⁻¹

Variant: C16A U31C A33G C34A A52U C68U
- self-cleavage kobs at 640 uM GlcN6P [1]: < 1e-05 s⁻¹

Variant: C16A U46C C68A
- self-cleavage kobs at 640 uM GlcN6P [1]: < 1e-05 s⁻¹

Variant: C16A U55C C61G C67G U69G
- self-cleavage kobs at 640 uM GlcN6P [1]: < 1e-05 s⁻¹

Variant: C16G A48C A53G C70A
- self-cleavage kobs at 640 uM GlcN6P [1]: < 1e-05 s⁻¹
- self-cleavage kobs at 2500 uM GlcN6P [2]: < 1e-05 s⁻¹
- self-cleavage kobs at 10000 uM GlcN6P [3]: < 1e-05 s⁻¹

Variant: C16G G35U G38U G59U C70A
- self-cleavage kobs at 640 uM GlcN6P [1]: < 1e-05 s⁻¹
- self-cleavage kobs at 160 uM GlcN6P [4]: < 1e-05 s⁻¹
- self-cleavage kobs at 2500 uM GlcN6P [2]: < 1e-05 s⁻¹

Variant: C16G G35U U45G
- self-cleavage kobs at 640 uM GlcN6P [1]: < 1e-05 s⁻¹
- self-cleavage kobs at 160 uM GlcN6P [4]: < 1e-05 s⁻¹
- self-cleavage kobs at 2500 uM GlcN6P [2]: < 1e-05 s⁻¹

Variant: C16G G38C U56C
- self-cleavage kobs at 640 uM GlcN6P [1]: < 1e-05 s⁻¹

Variant: C16G G40A
- self-cleavage kobs at 640 uM GlcN6P [1]: 0.000114 ± 2.6e-05 s⁻¹
- self-cleavage kobs at 2500 uM GlcN6P [2]: 0.000473 ± 0.00011 s⁻¹
- self-cleavage kobs at 10000 uM GlcN6P [3]: 0.00027 ± 5.7e-05 s⁻¹

Variant: C16G U56C C58U
- self-cleavage kobs at 640 uM GlcN6P [1]: < 1e-05 s⁻¹

Variant: C16G U65A
- self-cleavage kobs at 640 uM GlcN6P [1]: 0.000107 ± 1.4e-05 s⁻¹

Variant: C16U A36C A42G
- self-cleavage kobs at 640 uM GlcN6P [1]: < 1e-05 s⁻¹
- self-cleavage kobs at 2500 uM GlcN6P [2]: < 1e-05 s⁻¹
- self-cleavage kobs at 10000 uM GlcN6P [3]: < 1e-05 s⁻¹

Variant: C16U A36U G41U
- self-cleavage kobs at 640 uM GlcN6P [1]: < 1e-05 s⁻¹
- self-cleavage kobs at 160 uM GlcN6P [4]: < 1e-05 s⁻¹
- self-cleavage kobs at 2500 uM GlcN6P [2]: < 1e-05 s⁻¹

Variant: C16U A39U
- self-cleavage kobs at 640 uM GlcN6P [1]: 0.00392 ± 0.00055 s⁻¹
- self-cleavage kobs at 160 uM GlcN6P [4]: 0.00114 ± 0.00038 s⁻¹
- self-cleavage kobs at 2500 uM GlcN6P [2]: 0.0111 ± 0.0017 s⁻¹
- self-cleavage kobs at 10000 uM GlcN6P [3]: 0.034 ± 0.0081 s⁻¹

Variant: C16U A42U U45C C68G
- self-cleavage kobs at 640 uM GlcN6P [1]: < 1e-05 s⁻¹

Variant: C16U A53G C70A
- self-cleavage kobs at 640 uM GlcN6P [1]: 0.000224 ± 3.5e-05 s⁻¹
- self-cleavage kobs at 2500 uM GlcN6P [2]: 0.000232 ± 6.5e-05 s⁻¹

Variant: C16U G35C G37A
- self-cleavage kobs at 640 uM GlcN6P [1]: < 1e-05 s⁻¹

Variant: C16U G37A U54C
- self-cleavage kobs at 640 uM GlcN6P [1]: 0.000373 ± 8.1e-05 s⁻¹
- self-cleavage kobs at 2500 uM GlcN6P [2]: 0.000599 ± 0.00013 s⁻¹
- self-cleavage kobs at 10000 uM GlcN6P [3]: 0.00176 ± 0.00031 s⁻¹

Variant: C16U G40A U69G
- self-cleavage kobs at 640 uM GlcN6P [1]: < 1e-05 s⁻¹
- self-cleavage kobs at 2500 uM GlcN6P [2]: < 1e-05 s⁻¹

Variant: C16U G40C U57G C67G
- self-cleavage kobs at 640 uM GlcN6P [1]: < 1e-05 s⁻¹
- self-cleavage kobs at 160 uM GlcN6P [4]: < 1e-05 s⁻¹
- self-cleavage kobs at 2500 uM GlcN6P [2]: < 1e-05 s⁻¹

Variant: C16U U30A G41A A52U
- self-cleavage kobs at 640 uM GlcN6P [1]: < 1e-05 s⁻¹
- self-cleavage kobs at 160 uM GlcN6P [4]: < 1e-05 s⁻¹
- self-cleavage kobs at 2500 uM GlcN6P [2]: < 1e-05 s⁻¹

Variant: C16U U56G G60A A64U
- self-cleavage kobs at 640 uM GlcN6P [1]: < 1e-05 s⁻¹
- self-cleavage kobs at 160 uM GlcN6P [4]: < 1e-05 s⁻¹
- self-cleavage kobs at 2500 uM GlcN6P [2]: < 1e-05 s⁻¹

Variant: C16U U57G C68U
- self-cleavage kobs at 640 uM GlcN6P [1]: 3.89e-05 ± 1.6e-05 s⁻¹

Variant: C19A G35U
- self-cleavage kobs at 640 uM GlcN6P [1]: < 1e-05 s⁻¹
- self-cleavage kobs at 2500 uM GlcN6P [2]: < 1e-05 s⁻¹

Variant: G21U G26U U65G G66U U69G
- self-cleavage kobs at 640 uM GlcN6P [1]: 0.000207 ± 8.9e-05 s⁻¹

Variant: G29A A39C G43C U57C
- self-cleavage kobs at 640 uM GlcN6P [1]: < 1e-05 s⁻¹

Variant: G29A A52C U57G A64G C71A
- self-cleavage kobs at 640 uM GlcN6P [1]: < 1e-05 s⁻¹

Variant: G29A G32A C71A
- self-cleavage kobs at 640 uM GlcN6P [1]: 6.03e-05 ± 2.6e-05 s⁻¹
- self-cleavage kobs at 10000 uM GlcN6P [3]: 0.000201 ± 4.4e-05 s⁻¹

Variant: G29A G32C C61U
- self-cleavage kobs at 640 uM GlcN6P [1]: < 1e-05 s⁻¹

Variant: G29A G43A U56A
- self-cleavage kobs at 640 uM GlcN6P [1]: < 1e-05 s⁻¹

Variant: G29A G51C
- self-cleavage kobs at 640 uM GlcN6P [1]: < 1e-05 s⁻¹
- self-cleavage kobs at 160 uM GlcN6P [4]: < 1e-05 s⁻¹
- self-cleavage kobs at 2500 uM GlcN6P [2]: < 1e-05 s⁻¹
- self-cleavage kobs at 10000 uM GlcN6P [3]: < 1e-05 s⁻¹

Variant: G29A U46G
- self-cleavage kobs at 640 uM GlcN6P [1]: 0.000243 ± 4.1e-05 s⁻¹
- self-cleavage kobs at 160 uM GlcN6P [4]: 5.62e-05 ± 1.3e-05 s⁻¹
- self-cleavage kobs at 2500 uM GlcN6P [2]: 0.000425 ± 7.7e-05 s⁻¹
- self-cleavage kobs at 10000 uM GlcN6P [3]: 0.00128 ± 0.00027 s⁻¹

Variant: G29C A33G A39C U55A G60U
- self-cleavage kobs at 640 uM GlcN6P [1]: < 1e-05 s⁻¹
- self-cleavage kobs at 2500 uM GlcN6P [2]: < 1e-05 s⁻¹

Variant: G29C A36C U45G G66U
- self-cleavage kobs at 640 uM GlcN6P [1]: < 1e-05 s⁻¹

Variant: G29C A39C G44A A53U
- self-cleavage kobs at 640 uM GlcN6P [1]: < 1e-05 s⁻¹
- self-cleavage kobs at 160 uM GlcN6P [4]: < 1e-05 s⁻¹

Variant: G29C C71G
- self-cleavage kobs at 640 uM GlcN6P [1]: 3.96e-05 ± 1.4e-05 s⁻¹
- self-cleavage kobs at 160 uM GlcN6P [4]: 5.06e-05 ± 1.3e-05 s⁻¹
- self-cleavage kobs at 2500 uM GlcN6P [2]: 8.9e-05 ± 1.2e-05 s⁻¹
- self-cleavage kobs at 10000 uM GlcN6P [3]: 8.49e-05 ± 1e-05 s⁻¹

Variant: G29C G35U A39U
- self-cleavage kobs at 640 uM GlcN6P [1]: < 1e-05 s⁻¹

Variant: G29C G38C G41C
- self-cleavage kobs at 640 uM GlcN6P [1]: < 1e-05 s⁻¹

Variant: G29C G44A G60A A64G
- self-cleavage kobs at 640 uM GlcN6P [1]: < 1e-05 s⁻¹
- self-cleavage kobs at 160 uM GlcN6P [4]: < 1e-05 s⁻¹

Variant: G29C U30G C70U
- self-cleavage kobs at 640 uM GlcN6P [1]: 0.000861 ± 0.00017 s⁻¹

Variant: G29C U49C
- self-cleavage kobs at 640 uM GlcN6P [1]: < 1e-05 s⁻¹
- self-cleavage kobs at 2500 uM GlcN6P [2]: < 1e-05 s⁻¹
- self-cleavage kobs at 10000 uM GlcN6P [3]: < 1e-05 s⁻¹

Variant: G29C U57G
- self-cleavage kobs at 640 uM GlcN6P [1]: < 1e-05 s⁻¹

Variant: G29C U65G
- self-cleavage kobs at 640 uM GlcN6P [1]: 0.000115 ± 2.7e-05 s⁻¹
- self-cleavage kobs at 2500 uM GlcN6P [2]: 0.000279 ± 7.3e-05 s⁻¹
- self-cleavage kobs at 10000 uM GlcN6P [3]: 0.000591 ± 0.00015 s⁻¹

Variant: G29U A36G A42C G44A G60C
- self-cleavage kobs at 640 uM GlcN6P [1]: < 1e-05 s⁻¹
- self-cleavage kobs at 160 uM GlcN6P [4]: < 1e-05 s⁻¹
- self-cleavage kobs at 2500 uM GlcN6P [2]: < 1e-05 s⁻¹

Variant: G29U A53C G62C
- self-cleavage kobs at 640 uM GlcN6P [1]: < 1e-05 s⁻¹

Variant: G29U G44A G63A U65C C67U
- self-cleavage kobs at 640 uM GlcN6P [1]: < 1e-05 s⁻¹
- self-cleavage kobs at 160 uM GlcN6P [4]: < 1e-05 s⁻¹
- self-cleavage kobs at 2500 uM GlcN6P [2]: < 1e-05 s⁻¹

Variant: U30A A33G A36C
- self-cleavage kobs at 640 uM GlcN6P [1]: < 1e-05 s⁻¹

Variant: U30A A36C U45G
- self-cleavage kobs at 640 uM GlcN6P [1]: < 1e-05 s⁻¹

Variant: U30A A48C C58A G60A
- self-cleavage kobs at 640 uM GlcN6P [1]: < 1e-05 s⁻¹

Variant: U30A A48U G62A
- self-cleavage kobs at 640 uM GlcN6P [1]: < 1e-05 s⁻¹
- self-cleavage kobs at 160 uM GlcN6P [4]: < 1e-05 s⁻¹
- self-cleavage kobs at 2500 uM GlcN6P [2]: < 1e-05 s⁻¹

Variant: U30A C70G
- self-cleavage kobs at 640 uM GlcN6P [1]: 6.45e-05 ± 1.5e-05 s⁻¹
- self-cleavage kobs at 160 uM GlcN6P [4]: 6.81e-05 ± 1.8e-05 s⁻¹

Variant: U30A G38U U65G C68G
- self-cleavage kobs at 640 uM GlcN6P [1]: 0.000139 ± 4.3e-05 s⁻¹
- self-cleavage kobs at 160 uM GlcN6P [4]: 0.000204 ± 4.9e-05 s⁻¹

Variant: U30A G41A U49C
- self-cleavage kobs at 640 uM GlcN6P [1]: < 1e-05 s⁻¹
- self-cleavage kobs at 160 uM GlcN6P [4]: < 1e-05 s⁻¹

Variant: U30C A33C G43U G51A C58A
- self-cleavage kobs at 640 uM GlcN6P [1]: < 1e-05 s⁻¹
- self-cleavage kobs at 2500 uM GlcN6P [2]: < 1e-05 s⁻¹
